Reference: PubChem BioAssay AID652104 (National Center for Advancing Translational Sciences (NCATS), 2013)
Among all 410,000 compounds or so, about 7,200 (1.8%) were called active. Inconclusive results, whose numbers are uncertain, are shown with a selection of clear calls. The call rests on the fitted dose curve; in most records, active means well fitted activation curve with a large enough effect; inconclusive means small, poorly fitted or top-dose-only effect, or another doubt; inactive means no such curve, though single readings can be large or run the other way. No potency is given beside an inconclusive call; the fits are too rough.

assay: qHTS of TDP-43 Inhibitors; details: TDP-43 expressing yeast growth rescue, BacTiter-Glo, 24 h; growth rescue (activation): at 46.1 µM (top of the series) unless noted; further: nearly all actives have a fitted effect of over 50% in size; on growth rescue (activation): % of control where 0% means no effect
In short: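 Yeast expressing TDP-43 (pregrown in raffinose, seeded at OD600=0.02 in galactose medium) exposed to compounds 24 hr at 30 deg C. Growth read by BacTiter-Glo luminescence; rescue of toxicity appears as increased signal.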
Potency means the concentration at half of the fitted maximal effect; tags describe the fitted curve by direction and shape.

| SMILES | Potency | growth rescue (activation) |
| --- | --- | --- |
| Cc1ccc([C@H]2C(C(=O)O)=CC[C@@H](c3ccc(C)cc3)N2S(=O)(=O)c2ccccc2C)cc1 | inconclusive [activator, full curve, poor fit] |  |
| CC(C)Cc1ccc(CN2CCCC(NC(=O)c3cccc(-n4cnnc4)c3)C2)cc1 (centres undefined) |  | inactive: -21.4% |
| COc1ccc(-c2cc(=O)c3c(OC)c(OC)c(OC)c(OC)c3o2)cc1OC | inconclusive [activator, partial curve] |  |
| Cc1cc(C(=O)COc2ccc(Br)cc2F)c(C)n1C1CC1 | inconclusive [activator, single point] |  |
| Oc1ccccc1/C=N/NC(=S)NC1CC2CCC1C2 (centres undefined) | inconclusive [activator, single point] |  |
| CC(C)[C@H](NS(=O)(=O)c1ccccc1)C(=O)OCC(=O)Nc1ccccc1Sc1ccccc1 |  | inactive: 11.2% |
| O=C(Nc1ccc2c(c1)OCO2)C1COc2ccccc2O1 (centres undefined) | inconclusive [activator, partial curve] |  |
| COC(=O)c1[nH]c2ccc(C)cc2c1NC(=O)CN1CCC(C)CC1 | inconclusive [activator, partial curve] |  |
| O=C(Nc1ccccc1Cl)c1cc(C2CCCN(C(=O)c3cccs3)C2)on1 (centres undefined) | inconclusive [activator, partial curve] |  |
| Cc1nnc2sc(-c3csc4c3CCCC4)nn12 | active: 12.6 µM |  |
| Cc1ccc(OCCn2c(=O)cnc3ccccc32)cc1 | inconclusive [activator, partial curve] |  |
| CC(C)(C)NC(=O)NC(=O)COC(=O)c1nc(-c2ccccc2)n(-c2cccc(C(F)(F)F)c2)n1 | inconclusive [activator, partial curve] |  |
| Fc1ccc(-c2oncc2-c2nnnn2-c2ccccc2)cc1F | inconclusive [activator, single point] |  |
| O=[N+]([O-])c1ccc(Sc2ncccn2)c([N+](=O)[O-])c1 | inconclusive [activator, single point] |  |
| COc1ccc([C@H]2CC(=O)C=C(c3cccc(C#N)c3)C2)cc1 | inconclusive [activator, single point] |  |
| CCc1ccc(OCC(=O)Nc2ccc(-c3cc4ccccc4oc3=O)c(OC)c2)cc1 |  | inactive: -9.92% |
| Cc1nc(N2CCC(C)CC2)c2c(C)c(C(=O)Nc3ccccc3C(F)(F)F)sc2n1 | inconclusive [activator, partial curve] |  |
| Nc1c(N)c2ccccc2oc1=O |  | inactive: -2.31% |
| O=c1cc[nH]c(=O)[nH]1 | inconclusive [activator, partial curve] |  |
| Cc1ccc(S(=O)(=O)Nc2cc(C(C(=O)OC(C)C)C(=O)C(F)(F)F)c(O)c3ccccc23)c(C)c1 (centres undefined) | inconclusive [activator, single point] |  |
| O=[N+]([O-])c1ccc(-c2ccc(/C=N/O)o2)cc1 | inconclusive [activator, full curve] |  |
| CC(C)N(Cc1nc(-c2ccccc2)no1)C(=O)c1ccc(Br)o1 | inconclusive [activator, single point] |  |
| Cc1c(OCC(=O)N(C)C)ccc2c3c(c(=O)oc12)CCCCC3 |  | inactive: 8.47% |

| SMILES | Potency | growth rescue (activation) |
| --- | --- | --- |
| CCN(CC)C(=O)c1cccc(NC(=O)CC23CC4CC(CC(C4)C2)C3)c1 | inconclusive [activator, partial curve] |  |
| CC(=O)c1ccc(NC(=S)Nc2cccc(Cl)c2C)cc1 | inconclusive [activator, partial curve] |  |
| COCCNc1nc(Nc2ccccc2Cl)c2sc(-c3ccccc3)cc2n1 | inconclusive [activator, full curve, poor fit] |  |
| Cc1ccc(-c2ccnc3nc(-n4cccc4)nn23)o1 | active: 35.5 µM |  |
| Cc1cccc(Nc2nc(N)c([N+](=O)[O-])c(NCc3ccccc3)n2)c1 | inconclusive [activator, single point] |  |
| C=CCn1c(C)cc(C(=O)CSc2nc3ccccc3[nH]2)c1C |  | inactive: 15.6% |
| COc1ccc(/C=C/C(=O)c2ccc3c(c2)OCO3)cc1OC | inconclusive [activator, single point] |  |
| CCOC(=O)c1cnc2ccc(Cl)cc2c1NCCN(C)C | inconclusive [activator, full curve, poor fit] |  |
| COc1cccc(C2C(=O)N(C3CCCCC3)CC(=O)N2Cc2ccc(Cl)cc2)c1 (centres undefined) | inconclusive [activator, full curve, poor fit] |  |
| Cc1ccccc1-c1cccc([C@@H]2C[C@H]3[C@H](CON3C)CN2C(=O)CCc2ccccc2)c1 | inconclusive [activator, single point] |  |
| Cc1[nH]n(C(N)=S)c(=O)c1N=Nc1ccc(S(=O)(=O)N2CCCCCC2)cc1 | active: 3.98 µM |  |
| CCCCn1[nH]c(-c2ccccc2)cc1=O | inconclusive [activator, partial curve] |  |
| O=C1C(Cc2ccccc2)Nc2ncnc(N3CCc4ccccc4C3)c2N1Cc1ccc(Cl)cc1 (centres undefined) |  | inactive: 6.38% |
| Cc1cc(Br)ccc1OCC(=O)NNC(=O)c1cnccn1 | inconclusive [activator, single point] |  |
| COc1ccc(N2CCN(C(=O)c3cc4cc5ccc(Cl)cc5nc4o3)CC2)cc1 |  | inactive: -3.15% |
| CCCC(c1nnnn1C(C)(C)C)N1CCN(c2ccccc2)CC1 (centres undefined) |  | inactive: -26.5% |
| O=C(Nc1ccccc1)OCN1C(=O)c2ccccc2C1=O | inconclusive [activator, single point] |  |
| CCn1cc(C(=O)NCCc2ccc(OC)c(OC)c2)c(=O)c2cc(S(=O)(=O)N3CCc4ccccc4C3)ccc21 |  | inactive: -14.1% |
| CC(C)(C)OC(=O)NCC(=O)Oc1cc2oc(=O)cc(-c3ccccc3)c2cc1Cl | inconclusive [activator, full curve, poor fit] |  |
| COC(=O)c1c(C)cc(O)c(C)c1O | inconclusive [activator, full curve, poor fit] |  |
| CCS(=O)(=O)c1ncc(Cl)c(C(=O)N(Cc2ccccc2)Cc2ccco2)n1 | inconclusive [activator, single point] |  |
| Cc1ccsc1/C=C(\CC(=O)O)c1nc2ccccc2o1 | inconclusive [activator, single point] |  |
| COC(=O)C(=C/C(C)=C/c1cccnc1)C(=O)OC | inconclusive [activator, partial curve] |  |

| SMILES | Potency | growth rescue (activation) |
| --- | --- | --- |
| O=C1NC[C@@H](Cc2cccc3ccccc23)N(CCCCC2CCCCC2)C1=O |  | inactive: 16.4% |
| Clc1cccc(-c2nc3c4ccccc4ccn3c2Cc2ccccc2)c1 | inconclusive [activator, single point] |  |
| CCCC[C@@H]1CC2=C(C(=O)OC(C)(C)O2)[C@@H](c2ccc(F)cc2)O1 | inconclusive [activator, partial curve] |  |
| Cc1ccccc1Cn1c(NC2CCCC2)nc2c1c(=O)[nH]c(=O)n2C |  | inactive: 12% |
| O=C(NC(=S)Nc1cccc2ncccc12)c1ccccc1 | inconclusive [activator, single point] |  |
| CCOc1cc(C(=O)Nc2c(NC)c3ccccc3oc2=O)cc(OCC)c1OCC |  | inactive: -0.944% |
| COc1cccc(S(=O)(=O)N(C)C[C@@H]2Oc3ncc(C#CCN(C)C)cc3C(=O)N([C@H](C)CO)C[C@H]2C)c1 | inconclusive [activator, partial curve] |  |
| CC(C)Nc1cc(C(C)(C)C)nc2c(-c3ccccc3)cnn12 | inconclusive [activator, single point] |  |
| COc1cccc(CSc2nnc(CSc3nc4nc(C)cc(C)n4n3)s2)c1 | active: 20 µM |  |
| CCOC(=O)Nc1cccc(OCC(=O)Nc2ccccc2OC)c1 | active: 15.8 µM |  |
| O=C1C=C(Nc2ccc(Cl)cc2Cl)CC(c2ccco2)C1 (centres undefined) | inconclusive [activator, single point] |  |
| Cc1ccc(Nc2cc(Cl)nc(N)n2)c([N+](=O)[O-])c1 |  | inactive: 17.1% |
| O=C(NNc1cc(Cl)ccc1Cl)c1c(F)cccc1Cl | inconclusive [activator, single point] |  |
| O=C(CCCNC(=O)c1ccc(Cl)cc1)OCc1cccc(Br)c1 | inconclusive [activator, single point] |  |
| CCCCOC(=O)c1[nH]c(C)c(C(=O)OC)c1C | inconclusive [activator, single point] |  |
| O=C(COc1ccc(Cl)cc1Br)N1CCN(S(=O)(=O)c2ccccc2)CC1 | inconclusive [activator, single point] |  |
| CCCc1cc(C(=O)Nc2ccc(C(=O)c3ccc(F)cc3)cc2)n(C)n1 | inconclusive [activator, single point] |  |
| Cc1ccc(CNC(=O)C2(C)CCN2C(=O)Cc2ccc(-c3ccccc3)cc2)cc1 (centres undefined) | active: 35.5 µM |  |
| CCOc1cccc(-c2cc(-c3n[nH]c(=S)n3CC)c3ccccc3n2)c1 | inconclusive [activator, single point] |  |
| CCCC(=O)c1c(NC)cc(C)oc1=O | inconclusive [activator, partial curve] |  |
| COc1cccc(NC(=O)c2cnn(-c3ccccc3)c2C)c1 | active: 20 µM |  |
| O=C(CSc1ncnc2ccccc12)c1ccco1 | inconclusive [activator, partial curve] |  |
| COc1cccc(-c2cnc3c(NC(C)=O)cc(-c4ccc(C(=O)NC5CC5)cc4)cn23)c1 |  | inactive: 9.7% |
